Hit rate of the full screen: of about 310,000 compounds, about 2,200 (0.71%) showed an effect of 50% or more. The effect is printed as a negative number. Some of the results follow.

The target in the test is human ether-à-go-go-related gene (hERG) potassium channel (human, UniProt Q12809). The experiment in a line: primary screen, population patch clamp on CHO cells stably expressing hERG.
human ether-à-go-go-related gene (hERG) potassium channel, sequence (Q12809 whole entry, looked up): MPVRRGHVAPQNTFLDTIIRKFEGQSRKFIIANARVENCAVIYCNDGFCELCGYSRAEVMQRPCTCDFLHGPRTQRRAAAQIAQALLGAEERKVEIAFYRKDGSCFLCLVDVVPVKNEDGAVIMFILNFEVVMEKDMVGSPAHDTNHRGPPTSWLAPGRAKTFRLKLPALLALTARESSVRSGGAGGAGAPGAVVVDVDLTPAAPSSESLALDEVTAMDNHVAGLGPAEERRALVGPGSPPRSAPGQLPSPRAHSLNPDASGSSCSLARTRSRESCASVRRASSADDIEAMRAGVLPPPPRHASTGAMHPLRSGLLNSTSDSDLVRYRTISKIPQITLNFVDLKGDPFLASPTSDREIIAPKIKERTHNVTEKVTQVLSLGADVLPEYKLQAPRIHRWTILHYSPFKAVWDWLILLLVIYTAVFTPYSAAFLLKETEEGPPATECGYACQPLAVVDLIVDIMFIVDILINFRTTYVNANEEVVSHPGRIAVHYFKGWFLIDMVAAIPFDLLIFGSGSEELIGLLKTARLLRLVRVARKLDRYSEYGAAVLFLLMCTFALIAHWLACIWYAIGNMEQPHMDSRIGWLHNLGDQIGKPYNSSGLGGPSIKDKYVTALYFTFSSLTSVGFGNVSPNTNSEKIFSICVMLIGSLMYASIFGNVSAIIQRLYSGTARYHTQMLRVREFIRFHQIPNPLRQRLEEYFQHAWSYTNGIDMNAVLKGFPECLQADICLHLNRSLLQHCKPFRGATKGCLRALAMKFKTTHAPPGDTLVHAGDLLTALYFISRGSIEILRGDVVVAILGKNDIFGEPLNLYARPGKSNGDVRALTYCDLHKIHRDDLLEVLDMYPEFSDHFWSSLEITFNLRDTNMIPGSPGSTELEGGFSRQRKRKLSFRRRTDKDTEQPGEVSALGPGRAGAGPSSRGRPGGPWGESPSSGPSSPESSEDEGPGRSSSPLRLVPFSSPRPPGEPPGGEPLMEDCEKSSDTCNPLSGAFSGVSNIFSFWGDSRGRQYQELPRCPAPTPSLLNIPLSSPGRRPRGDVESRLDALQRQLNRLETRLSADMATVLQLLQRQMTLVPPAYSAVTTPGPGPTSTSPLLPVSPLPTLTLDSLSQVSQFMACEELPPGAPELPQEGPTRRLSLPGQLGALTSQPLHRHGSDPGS
As to `CN(C)c1nc(-c2ccc([N+](=O)[O-])cc2)cs1`, the “hERG current change (%, negative = inhibition) at 1uM” value came out at 7.93%.
For `COc1ccc(C(=O)N(c2ccccn2)C2CCCCC2)c(OC)c1` the value was 10.6%.
In the case of `CC(C)(C)Nc1nc(Cl)nc(NC(C)(C)C)n1`, the “hERG current change (%, negative = inhibition) at 1uM” value amounted to 5.68%.
As to `CCOC(=O)NC(=O)c1cn(Nc2ncc(Cl)cc2C(F)(F)F)c(=O)[nH]c1=O`, the “hERG current change (%, negative = inhibition) at 1uM” value is listed as 11.1%.
For `COc1ccc(-n2c(Cc3cc(=O)[nH]c(=O)[nH]3)nnc2SCc2ccccc2)cc1`, the “hERG current change (%, negative = inhibition) at 1uM” value was found to be 5.7%.
For `CCN(CC(=O)Nc1ccc(NC(C)=O)cc1)C(=O)c1ccccc1Sc1ccccc1C#N` the value was 15%; for `CCCN(CCC)CCNC(=O)CCC(=O)Nc1ccc2nc(N3CCOCC3)cc(C)c2c1`, 8.82%.
Regarding `COc1ccccc1NC(=O)CSc1nnc(C)n1Cc1ccccc1`, the “hERG current change (%, negative = inhibition) at 1uM” value came to 3.31%.
Consider `O=S(=O)(Nc1nc2ccccc2nc1NCc1ccco1)c1cccs1`, for which the “hERG current change (%, negative = inhibition) at 1uM” value is on record as 8.81%.
As for `COc1ccc(Br)cc1/C=N/NC(=O)c1cc(Br)ccc1O`, the “hERG current change (%, negative = inhibition) at 1uM” value was found to be 16%.
Consider `O=C(O)Cc1ccc2oc(-c3ccccn3)nc2c1`, for which the “hERG current change (%, negative = inhibition) at 1uM” value was 13.5%.
For `C=CCn1c(C(C)NC(=O)C(C)(C)C)nc2ccccc21` (stereo not drawn) the value was 8.93%; for `CCOC(=O)c1oc2ccc(S(=O)(=O)n3nc(-c4ccccc4)cc3N)cc2c1C`, 15.2%; for `Cc1cccc(-c2nc(-c3ccncc3)no2)c1`, 11.9%.
On to `Cc1cnc(C(=O)Nc2cccc(-c3nnc4n3CCCCC4)c2)cn1`, for which the “hERG current change (%, negative = inhibition) at 1uM” value worked out at 11.7%.
In the case of `O=C(NN=C1C2CC3CC(C2)CC1C3)c1cccs1` it was 13.5%; in that of `COc1ccc(C2CC(=O)C(C=NCCO)=C(O)C2)cc1OC` (stereo not drawn), 13.4%.
Regarding `C=CCn1c(Cc2cccs2)nnc1SCC(=O)NCc1ccco1`, the “hERG current change (%, negative = inhibition) at 1uM” value is 3.17%.
As to `COc1ccc(Nc2nc(N)nc(CN3CCC(C)CC3)n2)cc1`, the “hERG current change (%, negative = inhibition) at 1uM” value was -50.7%.
Regarding `CCOc1ccc(Nc2nc(Cc3nnc(SCC(=O)NCc4ccco4)n3CC)cs2)cc1`, the “hERG current change (%, negative = inhibition) at 1uM” value is 5.18%.
Regarding `CCCN(C(=O)COc1ccc(C(C)=O)cc1OC)C1CCS(=O)(=O)C1` (stereo not drawn), the “hERG current change (%, negative = inhibition) at 1uM” value is on record as 8.73%.
Take `O=C(Cn1ccc(NC(=O)OCc2ccccc2)nc1=O)NCCCn1ccnc1`: the “hERG current change (%, negative = inhibition) at 1uM” value was 16.6%.
Turning to `O=C(Cc1cccs1)N(c1ccc(Cl)cc1)C1C=CS(=O)(=O)C1` (stereo not drawn), the “hERG current change (%, negative = inhibition) at 1uM” value is recorded as 8.53%.
As to `Cc1ccnc(NC(=O)C2CCN(S(=O)(=O)c3c(C)c(C)cc(C)c3C)CC2)c1`, the “hERG current change (%, negative = inhibition) at 1uM” value was found to be 1.82%.
For `Cc1ccc(C)c(S(=O)(=O)Nc2ccc3sc(C)nc3c2)c1` the value was 8.02%; for `COC(=O)C1C(c2ccc(Cl)cc2)NC(c2ccc(Cl)cc2)C(C(=O)OC)S1(=O)=O` (stereo not drawn), 11.2%.
In the case of `COC(=O)CN1C(=O)C(C)(C)Oc2ccc(C(=O)NC3CCCC3)cc21` it was 14.8%; in that of `COC(=O)c1cnn(-c2ccc(F)cc2F)c1/C=N/NC(N)=S`, 5.86%.
As to `CC(C)NC(=O)Cn1cc(C(=O)c2ccccc2F)c2ccccc21`, the “hERG current change (%, negative = inhibition) at 1uM” value came to 14%.
Take `Cc1c(Cl)cccc1NC(=O)CC(NCCN1CCOCC1)C(=O)O` (stereo not drawn): the “hERG current change (%, negative = inhibition) at 1uM” value was 14.4%.
`CC1CN(C(=O)CCNS(=O)(=O)c2ccc(Br)cc2)CC(C)O1` (stereo not drawn): the “hERG current change (%, negative = inhibition) at 1uM” value came to 7.14%.
As to `Cc1ccc(S(=O)(=O)N2[C@@H](c3ccccc3)C(C(=O)O)=CC[C@H]2c2ccc(C(C)C)cc2)cc1`, the “hERG current change (%, negative = inhibition) at 1uM” value was 19.7%.
As for `Cc1ccc(-c2nc(NC(=O)c3cc(C(C)(C)C)nn3C)sc2C)cc1Cl`, the “hERG current change (%, negative = inhibition) at 1uM” value is 11.1%.
Consider `CC1(C)C[C@H]2C3=CCC4[C@@]5(C)CC[C@H](O)[C@](C)(CO)C5CC[C@@]4(C)[C@]3(C)C[C@H]3O[C@@H]1[C@H](O)[C@]32CO` (stereo partly drawn), for which the “hERG current change (%, negative = inhibition) at 1uM” value turned out to be 15.3%.
As to `CCOC(=O)C1C(=O)Nc2nc(C)nn2C1c1ccccc1` (stereo not drawn), the “hERG current change (%, negative = inhibition) at 1uM” value amounted to 16.2%.
`O=C(CCNC(=O)c1ccccc1Cl)NN1C(=O)NC2(CCCCC2)C1=O`: the “hERG current change (%, negative = inhibition) at 1uM” value is on record as -4.68%.
On to `CCCCC1=CC2=C(c3ccco3)C(=O)C(C)(OC(=O)c3ccc(OC)cc3)C(=O)C2=CN1Cc1ccccc1` (stereo not drawn), for which the “hERG current change (%, negative = inhibition) at 1uM” value is 4.37%.
For `Cc1cc(Cl)c(S(=O)(=O)N2CCN(c3ccc(F)cc3)CC2)cc1OCC(=O)NC1CCCCC1`, the “hERG current change (%, negative = inhibition) at 1uM” value turned out to be 7.64%.
Regarding `CCn1c(SCC(=O)N(C)C2CCS(=O)(=O)C2)nnc1-c1ccccc1` (stereo not drawn), the “hERG current change (%, negative = inhibition) at 1uM” value was determined as 13%.
For `Nc1c(C(=O)NCc2ccccc2)sc2nc(N3CCOCC3)c3c(c12)CCCC3` the value was 13.3%.
On to `CCOc1ccccc1C(=O)NCC(=O)Nc1ccc(-c2ccccc2)cc1`, for which the “hERG current change (%, negative = inhibition) at 1uM” value came out at 6.95%.
For the molecule `O=C(NC1CCCCC1)C(c1ccc2ncccc2c1)N(Cc1cccs1)C(=O)c1cccs1` (stereo not drawn), the “hERG current change (%, negative = inhibition) at 1uM” value is listed as -11.8%.
`Cc1ccccc1Nc1nc(N)nc(CSc2nncn2C)n1`: the “hERG current change (%, negative = inhibition) at 1uM” value was determined as 7.74%.
In the case of `COC(=O)c1cc(C(=O)NCCC(C)C)cc([N+](=O)[O-])c1` it was 15.2%; in that of `CCc1cc2cc(C)cc(C)c2nc1SCC(=O)N1CCN(C(=O)c2ccco2)CC1`, 1.54%; in that of `O=[N+]([O-])c1cccnc1N/N=C/c1ccccc1O`, 8.83%.
Turning to `CCOc1ccc(C(=O)N2CCN(c3cccc(C)c3C)CC2)cc1`, the “hERG current change (%, negative = inhibition) at 1uM” value is -30.2%.
Turning to `COc1ccccc1CC(=O)OC(C)C(=O)Nc1ccc(S(=O)(=O)N2CCCCC2)cc1` (stereo not drawn), the “hERG current change (%, negative = inhibition) at 1uM” value is 3.48%.
With `COc1ccc(C)cc1NC(=O)CN(c1ccccc1)S(C)(=O)=O`, the “hERG current change (%, negative = inhibition) at 1uM” value is on record as 8.12%.
Take `Cc1cccc(N2CCN(C(=O)c3cc(S(=O)(=O)N4CCCC4)cn3C)CC2)c1C`: the “hERG current change (%, negative = inhibition) at 1uM” value stood at 0.183%.
On to `O=S(=O)(/N=C(\c1ccc(Cl)cc1)N1CCOCC1)c1ccccc1`, for which the “hERG current change (%, negative = inhibition) at 1uM” value came to 3.97%.
On to `Cn1cnnc1Sc1ccc(C(=O)NCCC(c2ccccc2)c2ccccc2)cc1[N+](=O)[O-]`, for which the “hERG current change (%, negative = inhibition) at 1uM” value is on record as -39.8%.
On to `O=C(NCC(=O)N(c1ccccc1F)C(C(=O)NC1CCCC1)c1cccnc1)c1ccco1` (stereo not drawn), for which the “hERG current change (%, negative = inhibition) at 1uM” value is reported as 14%.
Regarding `Cc1cc(C(=O)Nc2ccccc2Cl)c2ccccc2n1`, the “hERG current change (%, negative = inhibition) at 1uM” value was 5.07%.
In the case of `COc1ccc(OC2C(=O)N(Cc3ccc4c(c3)OCO4)C2c2sccc2C)cc1` (stereo not drawn) it was 5.92%; in that of `CN1CC(c2ccccc2)C2(SC(=S)N(Cc3ccco3)C2=O)C12C(=O)Nc1ccccc12` (stereo not drawn), 6.1%; in that of `COc1cc(C(=O)NCC(=O)N/N=C/c2ccc(OC(=O)c3ccco3)cc2)cc(OC)c1OC`, 9.58%.
`CC(C)CN(C(=O)CN1C(=O)NC2(CCc3ccccc32)C1=O)C1CCS(=O)(=O)C1` (stereo not drawn): the “hERG current change (%, negative = inhibition) at 1uM” value was determined as 16.9%.
For `O=C(c1ccco1)N1CCN(C(=O)C2CC(c3ccc(F)cc3)=NO2)CC1` (stereo not drawn), the “hERG current change (%, negative = inhibition) at 1uM” value is -59.7%.
In the case of `CC(C)c1nc2oc3c(NCc4ccccn4)ncnc3c2c2c1COC(C)(C)C2`, the “hERG current change (%, negative = inhibition) at 1uM” value is 7.37%.
Turning to `Cc1cc(NC(=O)c2noc3c2CCCC3)no1`, the “hERG current change (%, negative = inhibition) at 1uM” value is recorded as -0.965%.
Take `COC(=O)c1ccccc1N/C=C/C(=O)c1ccc(Br)cc1`: the “hERG current change (%, negative = inhibition) at 1uM” value is 15.8%.
For `COc1ccc2c(c1)C(=O)[C@@H](O)[C@H](c1ccc(OC)c(Br)c1)O2`, the “hERG current change (%, negative = inhibition) at 1uM” value is 3.75%.
On to `COc1cc2nc(SCc3ccc(C(F)(F)F)cc3)n(Cc3cccs3)c(=N)c2cc1OC`, for which the “hERG current change (%, negative = inhibition) at 1uM” value is recorded as 1.51%.
As to `COC(=O)[C@@H](N)CCCN=C(N)N[N+](=O)[O-].Cl`, the “hERG current change (%, negative = inhibition) at 1uM” value amounted to 14.8%.
For `O=C(NCCN1CCN(c2ccccc2F)CC1)C1CCCN(S(=O)(=O)c2cnc[nH]2)C1` (stereo not drawn) the value was 8.89%.
For `CC1=C(C(=O)Nc2ccc([N+](=O)[O-])cc2)C(c2cccc(C(F)(F)F)c2)NC(=S)N1c1ccccc1` (stereo not drawn), the “hERG current change (%, negative = inhibition) at 1uM” value is listed as 2.79%.
Take `CCOc1ccc(Oc2c(C)oc3cc(O)ccc3c2=O)cc1`: the “hERG current change (%, negative = inhibition) at 1uM” value was determined as 6.43%.
For `Cc1ccc(C(=O)NCc2ccc(F)cc2)cc1NC1=NC2CS(=O)(=O)CC2S1` (stereo not drawn) the value was 8.39%.
Take `COc1ccc(C(=O)N/C(=C\c2cn(S(=O)(=O)N(C)C)c3ccccc23)C(=O)NCCCN2CCOCC2)cc1`: the “hERG current change (%, negative = inhibition) at 1uM” value is 11%.
Regarding `Cc1ccsc1C(=O)NCCc1ccc(S(N)(=O)=O)cc1`, the “hERG current change (%, negative = inhibition) at 1uM” value stood at 11.2%.
For the molecule `O=C(c1ccc2c(c1)N(Cc1ccccc1F)C(=O)c1ccccc1S2(=O)=O)N1CCCC1`, the “hERG current change (%, negative = inhibition) at 1uM” value turned out to be 18.8%.
As to `CC(OC(=O)CC1CCCC1)C(=O)Nc1ccc(Cl)cn1` (stereo not drawn), the “hERG current change (%, negative = inhibition) at 1uM” value is recorded as 7.05%.
Take `Cc1ccc(Cc2nc(-c3ccncc3)no2)cc1`: the “hERG current change (%, negative = inhibition) at 1uM” value was 4.95%.
For `CC(C)(C)CN1CCNC(=O)C1CC(=O)N1CCN(c2ccccc2)CC1` (stereo not drawn) the value was 8.57%; for `C=CCn1c(=NC(=O)CN2C(=O)CCC2=O)sc2cccc(OC)c21`, 5.41%; for `CCCCn1nnnc1SCC(=O)Nc1ccc(C)cc1`, 11%.
`C=CCN=C1S/C(=C\c2ccc(N(C)C)cc2)C(=O)N1CC=C`: the “hERG current change (%, negative = inhibition) at 1uM” value is given as 12%.
`CN(CC(=O)Nc1cccc2ccccc12)c1ccc(S(=O)(=O)N2CCOCC2)cn1`: the “hERG current change (%, negative = inhibition) at 1uM” value worked out at 5.96%.
Consider `COc1cccc(C(=O)Nc2cccnc2)c1OC`, for which the “hERG current change (%, negative = inhibition) at 1uM” value is on record as 16%.
For `Cc1ccc(CNC(=O)C2CCN(S(=O)(=O)N3CCOCC3)CC2)cc1` the value was -0.458%; for `CCCc1cc(=O)[nH]c(SCC(=O)Nc2oc(C)c3c(C)n[nH]c(=O)c23)n1`, 17.1%; for `CCOC(=O)c1nn(-c2ccc(F)cc2)c2c1CC/C2=C/c1ccccc1`, 8.74%.
For `CCCn1c(N)c(C(=O)COC(=O)CNC(=O)c2ccc(C)c(C)c2)c(=O)n(C)c1=O` the value was -42.5%.

For the origin of these results see article PMC4336329 (PLoS ONE, 2015).
